# From PMC12136788
# This is one part of the list.
# T1: UNK ZnF1-3 (human, UniProt Q9C0B0 31-174)
# T1 sequence: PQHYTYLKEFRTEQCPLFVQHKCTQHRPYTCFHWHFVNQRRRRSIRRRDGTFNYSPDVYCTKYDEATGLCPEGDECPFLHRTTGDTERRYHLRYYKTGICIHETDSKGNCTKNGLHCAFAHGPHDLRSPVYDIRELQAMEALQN
# B1: chr7:56126341:56126342:+_ENSG00000146731_ENST00000540286|hu_mus|hu_hu_hu_mus_True|1_18 (ssRNA)
# RNA: GGGAGUUCUACAGUCCGACGAUCCAUGUUUCUCCUCUUGGCUCUGCGCAGAGCUACGAUCCCUUCUUUCGCAAGGGCAUCUAAGGAAAAGGGGUCAAUCCCCUUUUGAUUAAUAACAACAAAUCCUUUAUCUGAGUCGCCACACAACAGAGGAUUGAGCAUCA
# B2: chr3:108421708:108421709:+_ENSMUSG00000040389_ENSMUST00000051145|mus_mus|FALSE|FALSE (ssRNA)
# RNA: GGGAGUUCUACAGUCCGACGAUCGCCAAGAAGGACUUCACUUUCUGUAAUUUCUUCACCAGUUGCUUUACUCUGACAAAAUUCUACGCAGCAUUCAUAAAGUAGGCCCUUCAUUACGAGCUGGAAUAAGCGAUUGUUACUUGCCAACAGAGGAUUGAGCAUCA
# B3: 33155842_33155962_432_CDS_ENSG00000170275_ENST00000320954|human|control|control (ssRNA)
# RNA: GGGAGUUCUACAGUCCGACGAUCCUGGCGGAAGGCUGGCAGGCCCUGCUUGCAGCGCUUGAGGCAGUGCGCGCGGCGCAGCAGGCCCCCGAAGAGGCGCAGCUCGGGAUAGCUGGCGAGGCCGGCGGCGGGCUCGGGCUGCGGCAACAGAGGAUUGAGCAUCA
# B4: chr7:99593380:99593381:+_ENSMUSG00000052572_ENSMUST00000098308|mus_mus|FALSE|FALSE (ssRNA)
# RNA: GGGAGUUCUACAGUCCGACGAUCCUGGGGUGAGAAGGCUGCCCAACUCUAGGGCAGAGAGCCCAUCAGAGGUUCAUCCCUAUACCUGGUACUUUGAGCAAACCCAAGCCUUCCUGCAUACUGUGAUGUCUUUUCCGUCCCACCCAACAGAGGAUUGAGCAUCA
# B5: chr6:17872010:17872011:+_ENSMUSG00000029534_ENSMUST00000127322|mus_hu|motif|central (ssRNA)
# RNA: GGGAGUUCUACAGUCCGACGAUCUUCACUGUCUCCUCUCUUCAGGAUAUGUUCUGGGGGUAGGAUUAAGCUUUUCAUUUCGGGUAGGUAUUUUGGCACAUGAGGAUUGAAUUCCACAGCUCUAUGAAUGGCCUCUACUGCAUUCAACAGAGGAUUGAGCAUCA
# B6: chr16:2814425:2814426:+_ENSG00000167978_ENST00000301740|hu_hu|FALSE|FALSE (ssRNA)
# RNA: GGGAGUUCUACAGUCCGACGAUCAGACAGUUCUUUAUGUUCUGGAGAAAAAUGUGGCCCACCCCAAGAUGAGGCCAUUGAAGGGACUUCUACUGCUUCCAAAGAAGCCUGUGACUGGCUCUGAUCAAGAGUCAAAGACACAGCCAACAGAGGAUUGAGCAUCA
# B7: 72387030_72387403_312_3pUTR_ENSMUSG00000053907_ENSMUST00000059472|mouse|control|control (ssRNA)
# RNA: GGGAGUUCUACAGUCCGACGAUCGAACCACUUUCUGGUAAUCAAUGGCAGCUCUGGAUGUAAUUUCCCCAGCAAGAAGAAUCAUUCCAGUUUUAGCAACAGUUUCACAAGCCACUUUAGCAUCAGGGUCUUGUUGAAGGUGUGCAACAGAGGAUUGAGCAUCA
# B8: chr1:93301758:93301759:+_ENSG00000122406_ENST00000370321|hu_hu|motif|central (ssRNA)
# RNA: GGGAGUUCUACAGUCCGACGAUCGUAUUCAUCACCAGUCACCUCCACUUGGCCUUCAUAGAUCUUGUCCAUGCCAAACCGGUUGAGAAGCCUGCGGGCCAGCAGCAGGCCAGUACAAUAUGCUGCAGCAUAAUUUGUCAGGCCCAACAGAGGAUUGAGCAUCA
# B9: chr15:103030146:103030147:-_ENSMUSG00000009575_ENSMUST00000118152|mus_mus|motif|central (ssRNA)
# RNA: GGGAGUUCUACAGUCCGACGAUCUUUGUUUUCCGCAUCCUCUGGAUAUGCGUGCCACGUCAGUCUCUCUUCAUAAAAUGCGGUCACAAUCUGUGGACACUUCACGUUAGCUUCUUUUGCAAGAACCAGGUCAGCUUCAUCUGUCAACAGAGGAUUGAGCAUCA
# B10: 131862834_131862954_378_5pUTR_ENSG00000115762_ENST00000234115|human|control|control (ssRNA)
# RNA: GGGAGUUCUACAGUCCGACGAUCGAACACCAAGACGCCACGGCGAUUCCUCGCCUGCUCGCCUGCAACUGCCGCACGUCCGGCGUCCUGGCCGCCGUUCUGACGUCACGCCUCGGCGCGCAUGCGCGGCGGGCCCCGGCCGGUCAACAGAGGAUUGAGCAUCA
# B11: chr8:95500983:95500984:-_ENSG00000164944_ENST00000437199|hu_mus|motif|central (ssRNA)
# RNA: GGGAGUUCUACAGUCCGACGAUCAGAACACAUCUAUCGAGUAAAGGACCGUACAUGACGGCCUCUACCACUGCCUCCACGGACAAACUUUCCUCUCGAGCCUCCACUGCCGCUAUUUGUACUAGCCCAGGACGGUCCCAGGCCCAACAGAGGAUUGAGCAUCA
# B12: chr5:132412388:132412389:+_ENSG00000170606_ENST00000304858|hu_hu|FALSE|FALSE (ssRNA)
# RNA: GGGAGUUCUACAGUCCGACGAUCUUUGGACUUAAUGUCUAGCUUGUAUUUCUUCCCAAAUUCUUCACAGAAGUGAUUUACUAACACUUCAUCAAAUUUUCUACCUCCCAAUGUCGUGUCAAAUGCAGUGGCCAGAACUUUCAGCAACAGAGGAUUGAGCAUCA
# B13: chr3:196555327:196555328:+_ENSG00000180370_ENST00000327134|hu_hu|motif|central (ssRNA)
# RNA: GGGAGUUCUACAGUCCGACGAUCUUCAGGUUAUGCAGACCAUUUCUUUAAACCCCAAAAAGAGUAAUAAUUUUCAUAUACGGAAAGGCUUCUUGUAGAAAAUGGAAAAAAGAGUAUGAGGCCACAGCAGUGAUGUUAACGGUUCAACAGAGGAUUGAGCAUCA
# B14: chr2:61705769:61705770:-_ENSG00000082898_ENST00000401558|hu_hu|FALSE|FALSE (ssRNA)
# RNA: GGGAGUUCUACAGUCCGACGAUCAAAUGGGCAUGAAGUAAAAUUUUUAAAAAUGCCUUAAUUUUCAACUUCAUGCAAACUAAAUAAAGAUGACCAAAACAAAAGCUUAAACAAUGGAAGGAUAUUUCACAGAAAAUUUCUUAUCAACAGAGGAUUGAGCAUCA
# B15: chr3:10015032:10015033:+_ENSMUSG00000027533_ENSMUST00000029046|mus_mus|mus_mus_mus_hu_True|88_108 (ssRNA)
# RNA: GGGAGUUCUACAGUCCGACGAUCGUUGUUGCCAUCACAAGUGAUGAUACAGUCUGGCUUGGCCAUUGCGCCCAUUUUUCGCAAAGCUAUUCCCACUCCUAGCUCCUUCAUGUAUUCAUCAAAGCCUUUGCUGUCCACCAGGCGCAACAGAGGAUUGAGCAUCA
# B16: chr8:131229317:131229318:+_ENSMUSG00000025809_ENSMUST00000090006|mus_hu|FALSE|FALSE (ssRNA)
# RNA: GGGAGUUCUACAGUCCGACGAUCUGAGCAAACACACAGCAAACUGAACUGAUCAGUCCAAUCCAGAAAAUUGGUUGUAAAUUCAUCUUUUCCGCGCGGCGUCCGGGGCCCGGCGCGGUGGGCUCGGGCCUGCUGUUCCGCGACCAACAGAGGAUUGAGCAUCA
# B17: chr8:117878989:117878990:-_ENSG00000164754_ENST00000297338|hu_hu|hu_hu_hu_mus_True|38_98 (ssRNA)
# RNA: GGGAGUUCUACAGUCCGACGAUCCCAGAGGCCCUCGUUUACUGAGAACAAAAUGUGCGUAGAACAUUUUUCUUAUUUGCUAUGAAAUAAGAAGAAAACCUUGCUCUGGCGGGGAGCCGGGAGGGGUGGGUGGCCCGGGGAGGGCAACAGAGGAUUGAGCAUCA
# B18: 122055103_122057333_1646_CDS_ENSMUSG00000031835_ENSMUST00000081381|mouse|control|control (ssRNA)
# RNA: GGGAGUUCUACAGUCCGACGAUCUACUGUGCUUACUAACAAGGUGACGGCCCCAGCGACCACUGGGGAAGCGACACUGGUCCCUGAGAGUGCACGGCAGCCCCCUUUCACACCGGAACCCCGCACUCCAGCACCAUAGGUGACCAACAGAGGAUUGAGCAUCA
# B19: chr5:21408736:21408737:-_ENSMUSG00000042453_ENSMUST00000161356|mus_hu|mus_mus_mus_hu_False|8_8 (ssRNA)
# RNA: GGGAGUUCUACAGUCCGACGAUCGUUGACAGAGUUGUAGAUGGUGGCUUCAUGGAACUGGAAAGGGGAGCAGCCAAUGCUGUUAGAAGAGGAAGGAAGGCACUGGGUCUGUACGAGCUGCCAGGAAUCGGACCUUGCAUCCUUCAACAGAGGAUUGAGCAUCA
# B20: chr7:20150648:20150649:-_ENSMUSG00000044709_ENSMUST00000117222|mus_mus|motif|central (ssRNA)
# RNA: GGGAGUUCUACAGUCCGACGAUCCUUGAAAGAAUAGGAAAUUAUGUCACUACAUCGAAGCAAGGCCUCGGCCUGUACACCGGUGGGAGUCUGCAGUUGGGAAACGUAGAAGUUGGCCACAUCCAGGUCUGUGGCUCCAAACUGCAACAGAGGAUUGAGCAUCA
# B21: chr2:136389457:136389458:+_ENSG00000048991_ENST00000409478|hu_hu|motif|central (ssRNA)
# RNA: GGGAGUUCUACAGUCCGACGAUCCUGAUCAACAUUGUGGUCUAAUCCAAAGUAAGCGGCUACUCUGUGUAAUAGCAUCCGGUGGUAAGAUGUCAUUGGGGGGAAUUUUUUACGUGGAGACUCAUUAUUACCAAUGAAAUCUAACAACAGAGGAUUGAGCAUCA
# B22: chr1:24083500:24083501:+_ENSG00000011007_ENST00000418390|hu_hu|motif|central (ssRNA)
# RNA: GGGAGUUCUACAGUCCGACGAUCACUGCUGGUGCUUGGGCCAUCAUAGGCCGGCUCCUCAGGGCUGGGGUUAAAGCUGAUGCGGCUGGCGGAAGCAUGGCUGCUUCCCAUGGGGUACGGGGCUGGCUUGAUCUUGAUUUUCUCCAACAGAGGAUUGAGCAUCA
# Target: T1, UNK ZnF1-3
# Experiment: nsRBNS (natural sequence RNA bind-n-seq); RBNS binding buffer (assumed for nsRBNS): 25 mM Tris pH 7.5, 150 mM KCl, 3 mM MgCl2, 0.01% Triton X-100, 500 ug/ml BSA, 20 U/ml SUPERase-In, 4 C; UNK is unkempt and MSI1 is Musashi-1; names of the RNAs are library labels; protein concentration not given here; high values mean tight binding
row,Binder,binding signal
1,B1,0.936 enrichment R
2,B2,0.935 enrichment R
3,B3,0.725 enrichment R
4,B4,1.38 enrichment R
5,B5,1.03 enrichment R
6,B6,0.872 enrichment R
7,B7,1.64 enrichment R
8,B8,1.14 enrichment R
9,B9,0.635 enrichment R
10,B10,0.625 enrichment R
11,B11,1.05 enrichment R
12,B12,1.1 enrichment R
13,B13,1.58 enrichment R
14,B14,1.75 enrichment R
15,B15,0.832 enrichment R
16,B16,0.843 enrichment R
17,B17,1.78 enrichment R
18,B18,1.01 enrichment R
19,B19,1.4 enrichment R
20,B20,0.844 enrichment R
21,B21,1.15 enrichment R
22,B22,0.797 enrichment R
